The source of these data is PubChem BioAssay AID1508624 (National Center for Advancing Translational Sciences (NCATS), 2021).

Screen size: about 48,000 compounds; about 120 (0.25%) were called active. About 4% were inconclusive and are not listed. The call rests on the fitted dose curve; in most records, active means well fitted activation curve with a large enough effect; inconclusive means small, poorly fitted or top-dose-only effect, or another doubt; inactive means no such curve, though single readings can be large or run the other way. The list shows a part of the results.

The nature of the assay: Primary qHTS for Identification of Small Molecule Activators of Huntingtin-Antisense Promoter Activity. Further: nearly all actives have a fitted effect of over 55% in size. To be noted: HEK293 HTT-AS promoter firefly luciferase reporter (activity 0% = vehicle and -100% = no light), 24 h; series mostly up to 57.5 µM; activity change, positive = activation: at the top concentration. The essentials: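 HEK293 cells carrying firefly luciferase reporters were seeded at 2,500 per well in Opti-MEM and cultured for 24 h. They were then treated with compounds at up to 57.5 uM final for 24 h at 37 degrees C before Dual-Glo luminescence readout.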
For `Cc1ccccc1Oc1nc2c(c(=O)n(C)c(=O)n2C)n1Cc1ccc(Br)cc1`, the “activity change, positive = activation” value was inactive: -13.9%.
As for `Cc1ccc(C)c(CSc2nc3ccncc3n2Cc2nc(-c3ccccc3Cl)oc2C)c1`, the figure is inactive: -39.9%; as for `CC(NC(=O)CSc1n[nH]c(-c2ccccc2)n1)c1nc2ccccc2n1C` (stereo not given), inactive: -13.3%; as for `COc1cc(OC)c(NC(=O)c2cc(S(=O)(=O)N3CCCC3)cn2C)cc1Cl`, inactive: -18.3%.
`Cc1ccc(S(=O)Cc2nc(-c3ccc(C(=O)NC(C)c4ccccc4)cc3)oc2C)cc1` (stereo not given): the “activity change, positive = activation” value is inactive: -9.75%.
For the compound `CCCCc1ccc(Nc2ncnc3c2cnn3-c2ccc(C)cc2)cc1`, the “activity change, positive = activation” value is inactive: -9.54%.
As for `CCC1CCCCN1C(=O)Cn1c(=O)n(CC2CCC(C(=O)NC)CC2)c(=O)c2sccc21` (stereo not given), the figure is inactive: -4.78%.
As for `O=C(Nc1ccc(OC(F)(F)F)cc1)NC1COc2ccccc2C1` (stereo not given), the figure is inactive: -11.4%.
As for `Cc1ccc2c(c1)nc(SCC(O)c1ccc(Br)cc1)n2C` (stereo not given), the figure is inactive: -16%; as for `COC(=O)c1ccc(C(=O)OC)c(NC(=O)c2c(-c3ccccc3)c(-c3ccccc3)nn(C)c2=O)c1`, inactive: -33.7%.
For `COc1ccc(N2CCN(Cc3nc4c(c(=O)[nH]c(=O)n4C)n3Cc3ccccc3)CC2)cc1`, the “activity change, positive = activation” value is inactive: -15.1%.
As for `Cn1c(=O)c2sccc2n2c(CCC(=O)NCc3ccccc3)nnc12`, the figure is inactive: -1.81%; as for `Cc1cccc(C)c1NC(=O)CN(C)S(=O)(=O)c1ccc2c(c1)n(C)c(=O)c(=O)n2C`, inactive: -0.324%.
With `CCSc1nc(=O)c2c(n1C)NC(=O)CC2c1ccc(O)cc1OC` (stereo not given), the “activity change, positive = activation” value is inactive: -7.28%.
`CCc1ccc(OCC(=O)NCC(c2ccc(OC)cc2)N2CCOCC2)cc1` (stereo not given): the “activity change, positive = activation” value was inactive: -18.1%.
Consider `COc1ccc(-n2c(=O)c3sc4ccccc4c3n(Cc3ccccc3)c2=O)cc1`, for which the “activity change, positive = activation” value is inactive: -6.62%.
In the case of `Cc1cccc(C(=O)N(Cc2nc(-c3ccc(Cl)cc3)no2)C(C)C)c1`, the “activity change, positive = activation” value is inactive: -12.1%.
Next, `CC(=O)c1cccc(NC(=O)Cn2c(C)c3cnn(-c4ccccc4)c(=O)c3c2C)c1`: inactive: -25.7%.
As for `CCN(CC)CCNC(=O)c1ccc2c(c1)N(Cc1ccccc1)C(=O)c1ccccc1S2=O` (stereo not given), the figure is inactive: -18%; as for `Cc1ccc2c(CNC3CCC(C)CC3)c(C(=O)O)n(Cc3cccc(F)c3)c2c1` (stereo not given), inactive: -14.2%.
As for `CC1CCN(c2nc3ccc(C(=O)NCc4ccc(Cl)cc4)cc3s2)CC1`, the figure is inactive: -78.7%; as for `COc1cc(NC(=O)c2cc3nc(-c4ccccc4)cc(-c4ccccc4)n3n2)c(OC)cc1Cl`, inactive: 1.53%.
With `COc1ccc(C2CC(=O)N(CC(=O)Nc3ccc(C(F)(F)F)cc3)c3ccccc3S2)cc1` (stereo not given), the “activity change, positive = activation” value is inactive: -24.2%.
As for `COc1ccc(C(=O)Nc2ccc3nc(SCC(=O)N4CCOCC4)sc3c2)cc1`, the figure is inactive: -7.39%.
For the compound `COC(=O)c1ccc(OC)c(Cn2c(=O)n(-c3ccc(C)cc3)c(=O)c3c2cnn3C)c1`, the “activity change, positive = activation” value is inactive: -40.3%.
Take `CCc1nn(CC(=O)NC2CC2)c(=O)c2cc3ccccc3n12`: the “activity change, positive = activation” value was inactive: 13.5%.
Take `COc1cccc(CNC(=O)c2c3c(nc4ccccc24)C(=O)N(C2CCCCC2)C3)c1`: the “activity change, positive = activation” value is inactive: -15.8%.
In the case of `Cn1cc(C(=O)NCc2ccccc2)c(=O)c2cc(S(=O)(=O)N3CCCCCC3)ccc21`, the “activity change, positive = activation” value is inactive: -14.3%.
Next, `CCc1ccc(CNC(=O)Cc2c(C(=O)O)c(C)cn2C)cc1`: inactive: -8.19%; `CCc1nnc(SCc2nc(-c3ccccc3)oc2C)c2cc3sccc3n12`: inactive: -12.2%; `Cc1ccc(C)c(NC(=O)Cn2c(=O)n(Cc3cccs3)c(=O)c3cccnc32)c1`: inactive: -23.5%.
In the case of `CC(C)(C)OC(=O)N1CCC(c2c(C(=O)N3CCN(c4ncccn4)CC3)cnn2-c2ccc(F)cc2F)CC1`, the “activity change, positive = activation” value was inactive: -13.2%.
For the compound `COc1ccc(-c2cn3nc(N4CCC(C(=O)Nc5cc(Cl)ccc5OC)CC4)sc3n2)cc1`, the “activity change, positive = activation” value was inactive: 20.4%.
As for `COc1ccc(OC)c(NC(=O)C(CCSC)NS(=O)(=O)c2cccs2)c1` (stereo not given), the figure is inactive: -3.4%; as for `COc1ccc(-c2nc(SCC(=O)N3CCC(C)CC3)n[nH]2)cc1`, inactive: -15.9%.
As for `C[N+](C)(C)CCCCCC[N+](C)(C)C`, the “activity change, positive = activation” value was inactive: -4.57%.
As for `Cc1ccc(Cl)cc1NC(=O)/C(C#N)=C\c1cn(Cc2ccc(F)cc2)c2ccccc12`, the figure is inactive: -27.4%.
On to `COc1ccc(C(=O)Nc2ccc(C(=O)OCc3cc(=O)n4nc(C(C)C)sc4n3)cc2)cc1`, for which the “activity change, positive = activation” value was inactive: 38.5%.
As for `Cc1ccccc1C(=O)Nc1ccc2nc(SCCOc3ccccc3)sc2c1`, the figure is inactive: -20.7%.
Next, `CCOC(=O)c1c(S(=O)(=O)NCC(=O)NCc2ccc(C)cc2)c(C)n(C)c1C`: inactive: -6.42%; `Fc1ccc(CNc2cc(-c3ccccc3)nc3nncn23)cc1`: inactive: -29.3%; `CC1C(=O)OC2C(O)C34C5CC(C(C)(C)C)C36C(OC(=O)C6O)OC4(C(=O)O5)C12O` (stereo not given): inactive: -5.44%.
Next, `COc1cccc(CCNc2ncnc3c2nnn3C)c1`: inactive: -7.96%.
`O=C(NCc1ccc(F)cc1)c1cc2c(s1)-c1ccccc1SC2`: the “activity change, positive = activation” value was inactive: 8.39%.
For the compound `O=C(CCCn1c(=O)c2ccccc2n(CC(=O)Nc2ccc(F)cc2F)c1=O)NCc1ccccc1Cl`, the “activity change, positive = activation” value is inactive: -33.9%.
`COc1cc2c(=O)n(CCC(=O)NCC3CCCO3)c(=O)n(CC(=O)Nc3c(C)cccc3C)c2cc1OC` (stereo not given): the “activity change, positive = activation” value is inactive: -4.24%.
For the compound `CCCCOC(=O)c1ccc(NC(=O)/C(C#N)=C/c2ccc(-c3ccccc3)o2)cc1`, the “activity change, positive = activation” value was inactive: -6.46%.
For the compound `CC(=O)c1ccc(NC(=O)CSc2ccc3nc(-c4ccccc4)cn3n2)cc1`, the “activity change, positive = activation” value is inactive: -61%.
Consider `Cc1ccc(-c2cc(C(=O)N3CCN(S(=O)(=O)c4ccc(Br)s4)CC3)[nH]n2)c(C)c1`, for which the “activity change, positive = activation” value is inactive: -21.8%.
For `CCOc1ccc(CCNC(=O)C2Cc3ccccc3N2C(=O)CC)cc1OCC` (stereo not given), the “activity change, positive = activation” value was inactive: -4.98%.
As for `Cc1ccc(N(CC(=O)Nc2ccc(Br)c(C)c2)S(=O)(=O)c2cccs2)cc1`, the “activity change, positive = activation” value is inactive: -18.5%.
As for `CN(C)c1ccc(CNC(=O)C(Cc2ccccc2)NS(=O)(=O)c2ccc3c(c2)oc(=O)n3C)cc1` (stereo not given), the figure is inactive: 13.5%; as for `N#Cc1ccccc1NC(=O)C(=O)NCC(c1cccnc1)N1CCN(c2ccccc2)CC1` (stereo not given), inactive: -15.5%; as for `CCOc1ccc(C(=O)Nc2ccc3nc(SCC(=O)N4CCOCC4)sc3c2)cc1`, inactive: -23.1%.
Next, `Cc1ccc(OCC(=O)Nc2ccc(-c3nc4ccc(C)cc4o3)cc2)cc1`: inactive: 30.1%.
Take `CCN1CCN(C(=O)c2ccc3c(c2)N(Cc2cc(C)ccc2C)C(=O)c2ccccc2S3(=O)=O)CC1`: the “activity change, positive = activation” value was inactive: -14.5%.
Next, `CCOc1ccccc1Nc1ccc2cc(S(=O)(=O)N3CCCCC3)ccc2n1`: inactive: -32.9%; `CCOC(=O)c1c(C)oc2nc(C)nc(NCCc3ccc(S(N)(=O)=O)cc3)c12`: inactive: -27.5%.
For `O=C(NCCc1ccccc1)c1cnc2sc(N3CCOCC3)nn2c1=O`, the “activity change, positive = activation” value was inactive: -1.2%.
As for `CCCSCCCNC(=O)CN1C(=O)COc2ccc(S(=O)(=O)N3CCCCCC3)cc21`, the figure is inactive: -30.6%.
